Out of some 350,000 compounds screened, about 31,000 (8.9%) were called active. The shares of active, inactive and inconclusive entries below differ from those in the screen. The call rests on the fitted dose curve; in most records, active means well fitted inhibition curve with a large enough effect; inconclusive means small, poorly fitted or top-dose-only effect; inactive means no such curve, though single readings can be large or run the other way. Where the call is inconclusive, the potency comes from a doubtful curve fit.
target: Histone-lysine N-methyltransferase EHMT2 (Homo sapiens) (UniProt Q96KQ7); assay: qHTS Assay for Inhibitors of Histone Lysine Methyltransferase G9a; conditions: G9a H3K9 monomethylation, AlphaScreen, 2 h; activity, negative = inhibition: at 59 µM (top of the series) unless noted; further: nearly all actives have a fitted effect of over 75% in size
Chain of UniProt Q96KQ7 (Q96KQ7 whole entry, looked up): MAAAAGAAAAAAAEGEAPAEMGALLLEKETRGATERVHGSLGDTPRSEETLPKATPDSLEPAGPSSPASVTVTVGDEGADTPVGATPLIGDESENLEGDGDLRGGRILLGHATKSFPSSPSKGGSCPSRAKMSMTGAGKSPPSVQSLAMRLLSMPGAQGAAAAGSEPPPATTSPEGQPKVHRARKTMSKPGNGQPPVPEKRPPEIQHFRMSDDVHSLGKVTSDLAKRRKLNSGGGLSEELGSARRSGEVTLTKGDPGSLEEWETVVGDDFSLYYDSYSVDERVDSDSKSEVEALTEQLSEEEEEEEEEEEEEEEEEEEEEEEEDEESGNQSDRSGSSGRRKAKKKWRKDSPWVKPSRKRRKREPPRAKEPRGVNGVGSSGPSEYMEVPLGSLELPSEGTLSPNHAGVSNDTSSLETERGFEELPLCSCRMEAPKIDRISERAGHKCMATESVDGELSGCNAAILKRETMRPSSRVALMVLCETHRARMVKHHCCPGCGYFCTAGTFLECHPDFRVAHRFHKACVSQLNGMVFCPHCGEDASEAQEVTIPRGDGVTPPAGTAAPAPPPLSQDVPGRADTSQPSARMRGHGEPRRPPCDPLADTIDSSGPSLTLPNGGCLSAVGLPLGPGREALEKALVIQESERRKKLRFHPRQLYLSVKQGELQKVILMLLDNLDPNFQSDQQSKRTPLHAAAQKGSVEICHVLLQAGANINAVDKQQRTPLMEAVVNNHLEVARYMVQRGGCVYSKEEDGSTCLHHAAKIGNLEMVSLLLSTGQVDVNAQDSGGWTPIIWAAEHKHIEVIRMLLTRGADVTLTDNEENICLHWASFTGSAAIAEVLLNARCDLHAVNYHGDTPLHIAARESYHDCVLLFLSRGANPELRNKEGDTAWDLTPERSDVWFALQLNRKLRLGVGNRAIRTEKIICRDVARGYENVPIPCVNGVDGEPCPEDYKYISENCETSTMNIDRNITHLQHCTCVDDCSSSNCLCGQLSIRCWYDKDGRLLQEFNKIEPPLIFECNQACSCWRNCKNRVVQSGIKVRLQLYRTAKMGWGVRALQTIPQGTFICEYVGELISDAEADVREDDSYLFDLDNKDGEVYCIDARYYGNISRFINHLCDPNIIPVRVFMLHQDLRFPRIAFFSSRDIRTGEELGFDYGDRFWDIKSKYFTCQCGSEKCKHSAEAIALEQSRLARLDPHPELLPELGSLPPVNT
Summary of the method: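 Readings reflect AlphaScreen signal from monomethyl-H3K9 antibody detection. HMT at 20 nM; substrate b-H3K9 500 nM; cofactor SAM 20 uM; 2 h RT reaction; compounds tested as titrations in qHTS with 15 min preincubation.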
On the % scale 0 is the no-effect control and ±100 the full control effect; potency means the concentration at half of the fitted maximal effect; tags describe the fitted curve by direction and shape.

| Structure (SMILES) | Potency | activity, negative = inhibition |
| --- | --- | --- |
| O=C(/C=C/c1ccc(Cl)cc1)N1CCN(c2ccccc2[N+](=O)[O-])CC1 | inconclusive: 70.8 µM [inhibitor, partial curve, poor fit] |  |
| COc1ccc2nc(C)cc(Nc3ccc(N4CCOCC4)cc3)c2c1 | inconclusive: 1.78 µM [inhibitor, partial curve, poor fit] |  |
| CCc1ccc2oc(-c3ccc(NC(=O)c4cccc(Cl)c4Cl)cc3)nc2c1 |  | inactive: -17.1% |
| CC/C(=N/Nc1ccc(Cl)cc1)c1cnnc(SC)n1 | active: 5.62 µM |  |
| CCOc1ccccc1NC(=O)CSc1ccc2nc(-c3ccccc3)cn2n1 | inconclusive: 31.6 µM [inhibitor, single point] |  |
| Cc1ccc(S(=O)(=O)N2CCOCC2)cc1C(=O)N1CCN(c2ncccn2)CC1 | inconclusive: 89.1 µM [inhibitor, single point] |  |
| C=CCNc1nc(-c2sc(NC(=O)CC)nc2C)cs1 | active: 8.91 µM |  |
| Cc1nc(Nc2ccccc2)sc1-c1ccccc1 | inconclusive: 44.7 µM [inhibitor, partial curve] |  |
| O=C(COC(=O)c1ccco1)NCC1CCCCC1 | inconclusive: 50.1 µM [inhibitor, partial curve, poor fit] |  |
| C=CCN1C(=O)C(Cc2cccc(Cl)c2)SC1=Nc1ccc(C(=O)O)cc1 (stereo not given) | inconclusive: 31.6 µM [inhibitor, partial curve, poor fit] |  |
| COc1ccc(CC(=O)NCC(=O)N/N=C/c2ccc(C)o2)cc1 | inconclusive: 89.1 µM [inhibitor, single point] |  |
| COc1ccc(C(=O)N(c2ccc(C)cc2)S(=O)(=O)c2ccc(C)cc2)cc1 |  | inactive: -1.21% |
| O=C1CC(c2ccc(F)cc2F)c2cc3c(cc2N1)OCO3 (stereo not given) |  | inactive: -32.1% |
| O=C(CSc1nc2ccccc2c(=O)n1CCCN1CCOCC1)Nc1cccc(S(=O)(=O)N2CCCCCC2)c1 | inconclusive: 89.1 µM [inhibitor, single point] |  |
| O=c1c2c([N+](=O)[O-])cc([N+](=O)[O-])cc2nc2ccccn12 | inconclusive: 31.6 µM [inhibitor, full curve, poor fit] |  |
| COc1ccc(-c2ccc(N(C)C)cc2)cc1[C@H]1[C@@H]2C=CCC[C@@]2(C)C(=O)N1Cc1ccccc1 |  | inconclusive: -74.5% [inhibitor] [at 12.7 µM] |
| C=C(C)CN(CC)C(=O)CN1C(=O)NC(C)(c2ccc3ccccc3c2)C1=O (stereo not given) |  | inactive: 15.4% [at 102 µM] |
| CN1CCN(c2ccc(S(=O)(=O)N3CCOCC3)cc2NC(=O)COc2ccc(F)cc2Cl)CC1 | inconclusive: 79.4 µM [inhibitor, single point] |  |
| O=C(O)c1cnccn1 | active: 8.91 µM |  |
| Cc1ccc(N2C(=O)CCSC23C(=O)N(Cc2ccc(F)cc2)c2ccccc23)cc1 (stereo not given) | inconclusive: 25.1 µM [inhibitor, partial curve, poor fit] |  |
| Cc1ccc(NC(=S)NCc2cccnc2)cc1 |  | inactive: 10.5% [at 0.501 µM] |
| CC1=CS(=O)(=O)CC1SC(=S)N(C)C1CCS(=O)(=O)C1 (stereo not given) | inconclusive: 89.1 µM [inhibitor, partial curve, poor fit] |  |
| CC(=O)c1cccc(NC(=O)COC(=O)c2ccccn2)c1 |  | inactive: 11.7% |
| COC(=O)[C@H](CCSC)NC(=O)Nc1ccc(C)cc1C |  | inactive: 40% [at 102 µM] |

| Structure (SMILES) | Potency | activity, negative = inhibition |
| --- | --- | --- |
| CC1CCN(CC(O)CN2c3ccccc3Sc3ccccc32)CC1 (stereo not given) | inconclusive: 0.282 µM [inhibitor, full curve, poor fit] |  |
| CCOC(=O)c1c(NC(=O)COc2ccc(C(C)(C)C)cc2)sc2c1CCCC2 | inconclusive: 14.1 µM [inhibitor, partial curve, poor fit] |  |
| CC1CCCCC1NC(=O)CNC(=O)c1cccs1 (stereo not given) | active: 14.1 µM |  |
| COC(=O)c1ccccc1NC(=O)Cn1c(CCC(=O)O)ccc1-c1ccc(C)cc1 | inconclusive: 28.2 µM [inhibitor, partial curve, poor fit] |  |
| O=C(c1cccnc1)N1CCN(C(=O)c2ccco2)CC1 |  | inactive: 6.15% |
| O=C(CCN1C(=O)/C(=C/c2cccs2)SC1=S)NC1=NCCS1 | inconclusive: 8.91 µM [inhibitor, partial curve] |  |
| CCO/C=C1\SC(=S)N(c2ccc(Cl)cc2)C1=O | inconclusive: 39.8 µM [inhibitor, partial curve] |  |
| CCn1nnc(C(=O)O)c1C(=O)O |  | inconclusive: -103% [inhibitor] |
| COc1ccccc1OCC#CCn1ccnc1 | active: 3.16 µM |  |
| CCCCNS(=O)(=O)c1ccc(S(=O)(=O)NCc2ccncc2)cc1 | inconclusive: 20 µM [inhibitor, single point] |  |
| Cc1ccccc1C(=O)N1CCN=C1SCc1ccc([N+](=O)[O-])cc1 | inconclusive: 35.5 µM [inhibitor, partial curve] |  |
| CCOc1ccc(NC(=O)COc2nsnc2N2CCCCC2)cc1 | inconclusive: 50.1 µM [inhibitor, partial curve, poor fit] |  |
| CCn1c(SCC(=O)Nc2cc(C)on2)nc2c([nH]c3ccccc32)c1=O |  | inactive: -40.4% [at 102 µM] |
| Cc1ccc(NC(=O)NC(=O)CN2CCCC2c2ccc3c(c2)OCCO3)cc1C (stereo not given) | inconclusive: 35.5 µM [inhibitor, single point] |  |
| COc1ccc(/C=C2\C(=O)NC(=S)N2C(=O)c2ccc(C)cc2)cc1 | inconclusive: 3.55 µM [inhibitor, single point] |  |
| Oc1ccc(-c2csc(Nc3cccc4ccccc34)n2)cc1O | active: 12.6 µM |  |
| CCCOc1ccc(C(=O)NC(=S)NCc2cccnc2)cc1 | active: 44.7 µM |  |
| O=C(NCCc1c[nH]c2ccccc12)C1CCN(Cc2ccc(Br)cc2)CC1 |  | inactive: -6.03% |
| COc1ccc(NC(=O)CSc2nnc3ccc(-c4ccncc4)nn23)cc1 | inconclusive: 79.4 µM [inhibitor, partial curve, poor fit] |  |
| CC1CCN(CCNC(=O)CN(C)S(=O)(=O)c2cccc3nsnc23)CC1 | inconclusive: 50.1 µM [inhibitor, partial curve, poor fit] |  |
| CC(=O)N/C(=C\c1ccccc1)C(=O)OC(C)C(=O)Nc1ccccc1F (stereo not given) | inconclusive: 5.62 µM [inhibitor, single point] |  |
| NC(=O)c1ncc(C(F)(F)F)cc1Oc1cccc(F)c1 | inconclusive: 79.4 µM [inhibitor, single point] |  |
| CC1CCCC(C)N1CCCNC(=O)c1cc2c(s1)-c1ccccc1OC2 (stereo not given) |  | inactive: 28.4% [at 102 µM] |
| Cc1cccc(Nc2nc3c(S(=O)(=O)c4ccc(Br)cc4)nnn3c3ccsc23)c1C |  | inactive: -20.3% |

| Structure (SMILES) | Potency | activity, negative = inhibition |
| --- | --- | --- |
| Cc1cc(C)c2oc(-c3cccc(NC(=O)COc4ccccc4Cl)c3C)nc2c1 |  | inactive: 2.28% |
| CC1=C(C(=O)Nc2cccnc2)C(c2ccccc2Cl)n2nc(-c3ccccc3)nc2N1 (stereo not given) |  | inactive: -1.51% |
| O=[N+]([O-])c1ccccc1/C=C/C=N/n1c(-c2ccccc2)n[nH]c1=S | active: 3.16 µM |  |
| CCN(C(=O)COC(=O)c1ccc2ccccc2n1)c1c(N)n(Cc2ccccc2)c(=O)[nH]c1=O | inconclusive: 89.1 µM [inhibitor, partial curve, poor fit] |  |
| C[C@H]1CC[C@H]2C(=O)N3[C@H](c4cccc(N5CCCC5=O)c4)[C@@H](C)CC[C@H]3C(=O)N2[C@@H]1c1cccc(N2CCCC2=O)c1 | active: 50.1 µM |  |
| CC1(C)Cc2c(sc3nc(SCC(=O)NCc4ccccc4)n(-c4ccccc4)c(=O)c23)CS1 |  | inactive: 13.5% [at 102 µM] |
| O=C(O)CC(NC(=O)C1c2ccccc2Oc2ccccc21)c1ccc(Cl)cc1 (stereo not given) | active: 11.2 µM |  |
| CCc1nnc(NC(=O)c2cc(S(=O)(=O)N(C)c3ccc(OC)cc3)ccc2Cl)s1 | inconclusive: 17.8 µM [inhibitor, partial curve, poor fit] |  |
| COC(=O)c1cc(NC(=O)CC2NC3CCCCC3NC2=O)cc(C(=O)OC)c1 (stereo not given) | inconclusive: 89.1 µM [inhibitor, single point] |  |
| CCOC(=O)c1ccc(N2C(=O)CC(Sc3ncccn3)C2=O)cc1 (stereo not given) | inconclusive: 79.4 µM [inhibitor, single point] |  |
| COc1ccc(/C=C2/SC(=S)N(CCC(=O)N3CCN(C)CC3)C2=O)cc1 | inconclusive: 31.6 µM [inhibitor, partial curve, poor fit] |  |
| CCc1ccccc1N(C(=O)CCC(=O)Nc1cc(C)on1)C(C(=O)NC1CCCC1)c1ccco1 (stereo not given) | inconclusive: 79.4 µM [inhibitor, partial curve, poor fit] |  |
| CC(=O)c1c(C)n(-c2ccc(C)cc2)c2ccc(OC(=O)COc3ccccc3)cc12 |  | inactive: -44.2% |
| COc1cc(/C=C2/SC(=S)N(CC3CCCO3)C2=O)ccc1O (stereo not given) | active: 28.2 µM |  |
| CCOC(=O)C1CCCN(CCC(C)c2ccccc2)C1 (stereo not given) | inconclusive: 0.501 µM [inhibitor, partial curve, poor fit] |  |
| CN1CCN(C(=S)Nc2ccc(S(N)(=O)=O)cc2)CC1 | active: 39.8 µM |  |
| Cn1cc(S(=O)(=O)Nc2ccc(F)cc2F)c(=O)n(C)c1=O | inconclusive: 20 µM [inhibitor, partial curve, poor fit] |  |
| Cc1cc(OCC(=O)O)c2ccccc2n1 | inconclusive: 79.4 µM [inhibitor, partial curve, poor fit] |  |
| Cc1ccc2nc(CN3CCN(S(=O)(=O)c4ccc(C)c(C)c4)CC3)oc2c1 | inconclusive: 1.41 µM [inhibitor, single point] |  |
| Cc1ccc(-c2nn[nH]n2)cc1Cl | active: 50.1 µM |  |
| COC(=O)c1ccccc1S(=O)(=O)C(C)(C)C |  | inactive: -8.49% |
| CCN(CC)S(=O)(=O)c1cc(NS(=O)(=O)c2c(Cl)cccc2Cl)ccc1C | inconclusive: 89.1 µM [inhibitor, partial curve, poor fit] |  |
